Data taken from publication PMC4336329 (PLoS ONE, 2015).
Screen size: about 310,000 compounds; about 2,200 (0.71%) showed an effect of 50% or more. The effect is printed as a negative number. The list shows a part of the results.

target: human ether-à-go-go-related gene (hERG) potassium channel (human, UniProt Q12809); test: primary screen, population patch clamp on CHO cells stably expressing hERG
Sequence (Q12809 whole entry, looked up): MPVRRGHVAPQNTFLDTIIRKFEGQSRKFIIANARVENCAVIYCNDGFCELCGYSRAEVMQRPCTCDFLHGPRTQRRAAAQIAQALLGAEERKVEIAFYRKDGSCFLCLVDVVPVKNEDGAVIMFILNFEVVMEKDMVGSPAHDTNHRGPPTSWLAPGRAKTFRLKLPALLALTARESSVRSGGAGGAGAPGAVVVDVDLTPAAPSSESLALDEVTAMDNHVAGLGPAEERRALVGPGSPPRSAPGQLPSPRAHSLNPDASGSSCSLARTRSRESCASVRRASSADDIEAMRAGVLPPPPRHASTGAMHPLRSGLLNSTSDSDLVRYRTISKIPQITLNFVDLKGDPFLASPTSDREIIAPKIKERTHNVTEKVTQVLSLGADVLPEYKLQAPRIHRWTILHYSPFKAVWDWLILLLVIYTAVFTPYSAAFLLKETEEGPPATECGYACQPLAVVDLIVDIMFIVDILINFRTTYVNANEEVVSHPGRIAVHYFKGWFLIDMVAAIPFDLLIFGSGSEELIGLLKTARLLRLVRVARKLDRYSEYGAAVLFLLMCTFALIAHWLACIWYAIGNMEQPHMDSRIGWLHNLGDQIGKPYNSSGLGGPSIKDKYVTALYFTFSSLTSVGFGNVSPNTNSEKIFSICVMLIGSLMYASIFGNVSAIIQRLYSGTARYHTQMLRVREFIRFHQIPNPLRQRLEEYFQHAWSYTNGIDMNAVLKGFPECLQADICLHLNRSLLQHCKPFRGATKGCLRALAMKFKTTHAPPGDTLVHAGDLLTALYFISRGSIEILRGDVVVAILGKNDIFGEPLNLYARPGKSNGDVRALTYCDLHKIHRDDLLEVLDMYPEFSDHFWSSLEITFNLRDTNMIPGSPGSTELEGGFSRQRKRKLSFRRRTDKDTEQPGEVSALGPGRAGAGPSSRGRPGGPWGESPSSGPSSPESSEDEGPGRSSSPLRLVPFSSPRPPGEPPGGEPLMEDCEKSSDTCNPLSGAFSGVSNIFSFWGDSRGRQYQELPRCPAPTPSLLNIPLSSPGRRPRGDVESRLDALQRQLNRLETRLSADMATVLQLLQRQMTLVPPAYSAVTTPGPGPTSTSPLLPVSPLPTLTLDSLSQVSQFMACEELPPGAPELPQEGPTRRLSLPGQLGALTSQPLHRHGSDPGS

SMILES | hERG current change (%, negative = inhibition) at 1uM [%]
NS(=O)(=O)c1cc2c(cc1Cl)NC=NS2(=O)=O | 1.8
COc1ccc2c(c1)c(=O)oc1cc(OC(C(=O)O)c3ccccc3)ccc12 (stereo not drawn) | 20
O=C(Cn1c2[n+](c3ccc(C(F)(F)F)cc31)CCCCC2)c1cccc([N+](=O)[O-])c1.[Br-] | 1.37
O=C(O)CCCc1nc2ccccc2s1 | 10.8
O=[N+]([O-])c1ccc(/C=N/Nc2ncc(Br)cn2)cc1 | 7.23
CN(CC(=O)Nc1ccccc1Cl)C(=O)COC(=O)c1ccc(Cl)nc1 | 12.6
CC1CCCCC1NC(=S)NC(=O)c1cccs1 (stereo not drawn) | 15.7
COc1ccc(S(=O)(=O)N2CCSC2)cc1C | 5.16
Cn1c(SCC(=O)NCc2ccccc2)nc2ccccc21 | 20.4
CN1CCN(c2ccc(NC(=O)COc3ccc4ccccc4c3)cc2)CC1 | 3.13
COc1cccc(-c2nn3c(-c4ccccn4)nnc3s2)c1 | -8.72
O=C(CCC1CCCC1)N1CCC(N2CCCCCC2)CC1.O=C(O)C(=O)O | -10.1
O=C(CCCN1C(=O)CCC1=O)Nc1ccc2c(c1)OCO2 | 15.4
CN(C)S(=O)(=O)c1ccc(N2CCCC2)c(C(=O)Nc2ccc(N3CCOCC3)cc2)c1 | 0.967
Cn1nnc(NC(=O)CSc2ncn[nH]2)n1 | 3.74
O=C(NCc1nnc(SCC(=O)N2CCCCC2)o1)c1c(F)cccc1F | 6.45
CC1CCC(C(=O)NC(C(=O)N2CCN(c3ccccn3)CC2)C(C)C)CC1 (stereo not drawn) | 8.21
Nc1nc2c(Cl)ccc(Cl)c2s1 | 13.5
CCOC(=O)N1CCC(Nc2c(NCCCN(CC)CC)c(=O)c2=O)CC1 | 13.3
C#CCSc1nc(-c2ccccc2)cc(C(F)(F)F)c1C#N | 4.87
COc1ccc(/C=C/C(=O)NC(=S)Nc2ccc(S(N)(=O)=O)cc2)cc1 | 8.68
CCCCn1c(O)c(N=Nc2ccccc2O)c2ccccc21 | 11.4
O=C(NC12CC3CC(CC(C3)C1)C2)N1CCN(C(=O)c2ccco2)CC1 | 8.18

SMILES | hERG current change (%, negative = inhibition) at 1uM [%]
COc1ccc(S(=O)(=O)CCC(=O)NC2CCCCC2)cc1 | 13.2
O=C(NCCCN1CCOCC1)c1ccc2c(=O)n(Cc3cccc(Br)c3)c(=S)[nH]c2c1 | 11.3
CCOC(=O)c1ccc(NC(=O)CCc2nnc3ccc(N4CCCC4)nn23)cc1 | 3.89
COc1ccccc1-n1cnc(N)c1C(=O)c1ccccc1 | 3.06
COc1cccc(NC(=O)c2ccccc2-c2nc(-c3ccc(Cl)cc3)no2)c1 | 1.5
Cc1ccc(O)c(NC(=O)CSc2n[nH]c(-c3ccccc3)n2)c1 | -11.7
CCCCOc1ccc(C(=O)NCC(=O)NC2CCCCC2)cc1 | 12
CC1CN(/C=C/C=O)C(C)CC1OC(=O)c1ccccc1 (stereo not drawn) | 11.3
CCC(=O)Nc1nnc(SCC(=O)NCC2CCCO2)s1 (stereo not drawn) | 7.2
COc1ccc(CCN2CNc3c(c(=O)n(C)c(=O)n3C)C2)cc1 | -6.58
COc1ccc(CCn2c(-c3ccco3)nc3ccccc3c2=O)cc1OC | -14.3
CCNC(=O)CC1C(=O)N(C)C(=S)N1NC(=O)c1ccc(Cl)cc1 (stereo not drawn) | -10.1
O=C(CSc1nc(C(F)(F)F)cc(=O)[nH]1)NCC1CCCO1 (stereo not drawn) | 16.8
O=c1c2ccccc2nc2sc3ccccc3n12 | 14.7
CC1CCN(C(C(=O)NC2CCCCC2)c2cc3c(cc2[N+](=O)[O-])OCO3)CC1 (stereo not drawn) | 4.21
CCCCOc1cccc(C(=O)NC(=S)Nc2cccc(C(F)(F)F)c2)c1 | 11.9
Cc1ccc(S(=O)(=O)CCC(=O)Oc2ccc(-c3nnco3)cc2)cc1 | 8.72
O=C1CNC(=S)N1c1nc2ccccc2s1 | 18.3
CC(=O)Nc1ccc(S(=O)(=O)N2CCC(C(=O)c3ccc(Cl)cc3)CC2)cc1 | 9.25
O=C1NCCc2c1[nH]c1c(Cl)ccc(Cl)c21 | 1.54
Cc1cccc(/C=C2/Sc3ccc(C(=O)NCCCN4CCOCC4)cc3NC2=O)c1 | 11.7
COc1cc(OC)cc(-c2ncc3ccccn23)c1.O=C(O)C(=O)O | 6.57
CCC(=NCc1ccco1)c1c(O)n(-c2ccc(C)cc2)c(=O)[nH]c1=O | -1.7

SMILES | hERG current change (%, negative = inhibition) at 1uM [%]
CCn1c(=O)c2c(nc(SCC(=O)N3CCC(C)CC3)n2C)n(C)c1=O | 10.3
CCC(C)Nc1nc(C)nc2c1oc1ccccc12.Cl (stereo not drawn) | 8.23
Cc1ccc(NC(=S)NCC2CCCO2)c(OC(F)F)c1 (stereo not drawn) | 11.4
O=C(COc1cccc([N+](=O)[O-])c1)NN1C(=O)c2ccccc2C1=O | 16.8
Cc1ccc(-c2cn(S(=O)(=O)c3ccc(C)cc3)nc2N)cc1 | 6.87
CCOC(=O)c1[nH]c(C)c(C(=O)OC(C)C(=O)Nc2ncc(Cl)cc2Cl)c1C (stereo not drawn) | 3.74
CC(C(Sc1ccccc1N)c1ccccc1)[N+](=O)[O-] (stereo not drawn) | 9.14
COc1c(C=O)cc2c3c1CCCN3CCC2 | 18.6
Cc1ccc(-c2c[nH]c(=S)n2-c2ccccc2)cc1 | 5.11
Cl.NC(=NCc1ccccc1)NC(=O)c1nc(Cl)c(N)nc1N | -26
COc1cccc(-c2csc(NC3OC(=O)c4c3ccc(OC)c4OC)n2)c1 (stereo not drawn) | 9.78
Cc1ccc(F)c(Cn2cnc3c(cnn3C(C)(C)C)c2=O)c1Cl | 11.5
O=C(N/N=C/c1cc(Br)ccc1O)C(c1ccncc1)N1CCOCC1 (stereo not drawn) | 5.53
COCCNC(=O)[C@@H]1CCCN1C(=O)C1CCN(S(=O)(=O)c2ccc(C)cc2)CC1 | 15.5
Cn1c(=O)n(CC(=O)N2CCN(c3nnc(-c4ccccc4)c4ccccc34)CC2)c2ccccc21 | -12.7
COc1ccc2[nH]c(=O)c(CN(C(=O)COc3ccccc3)C(C)C)cc2c1 | 4.57
Nc1nonc1-n1nnc(C(=O)N/N=C/c2cccs2)c1-c1ccc2c(c1)OCO2 | 2.97
CC(C)(C)C1CC=C2C(C#N)=C(N)C(C#N)(C#N)C(c3cccs3)C2C1 (stereo not drawn) | 11.1
CN1CCC(OC(=O)c2cccc(F)c2)CC1.Cl | 12.9
COc1ccccc1C(=O)NCCN1CCN(C(=O)c2ccccc2OC)CC1 | 4.56
CC(=O)c1ccc(S(=O)(=O)Nc2ccc(-n3cnnn3)cc2)cc1 | 9.2
COc1ccc(N(C(=O)CNS(=O)(=O)c2ccccc2)C(C(=O)NCc2ccco2)C(C)C)cc1 (stereo not drawn) | 9.05
CCN(CC)CCNC(=O)c1ccc(NC(=O)c2c(F)cccc2Cl)cc1 | -1.41

SMILES | hERG current change (%, negative = inhibition) at 1uM [%]
O=C(CCCC(=O)N(CC(=O)NC1CCCC1)Cc1ccccc1Cl)Nc1ccccn1 | 1.83
Cc1cc(Nc2ccccc2)n(-c2ccccc2)n1 | 0.831
CCN(CC)CCCC(C)NC1=NCCCCC1 (stereo not drawn) | 10.3
CCOC(=O)Cc1csc(SCC(=O)Nc2oc(C)c3c(C)n[nH]c(=O)c23)n1 | -5.5
CC(C)C(NC(=O)c1c(F)cccc1F)C(=O)N1CCN(S(=O)(=O)c2ccc(F)cc2)CC1 (stereo not drawn) | 1.77
CCOC(=O)c1c(S(=O)(=O)N2CCN(Cc3ccccc3)CC2)c(C)n(C)c1C | 3.83
NC(=O)C1(N2CCCCC2)CCN(C(=S)Nc2cccc(Cl)c2)CC1 | 14.5
COc1ccc2c(Cn3cnc4cc([N+](=O)[O-])ccc4c3=O)cc(=O)oc2c1 | 3.34
CCOC(=O)C1CCCN(CC(=O)Nc2c(C(=O)OC)[nH]c3ccc(Br)cc23)C1 (stereo not drawn) | -3.53
Cc1cc(C(=O)OCC(=O)NC(C)(C)C)c2ccccc2n1 | 12.9
O=C(COC(=O)c1ccc2c(c1)OCCO2)Nc1cc(Cl)ccc1Cl | 12
FC(F)(F)c1cccc(Cc2noc(CN3C[C@@H]4CCC[C@H]3C4)n2)c1 | 6.94
CCOc1ccc(/C=N/OC(C)C(=O)NCc2ccc3c(c2)OCO3)cc1 (stereo not drawn) | 7.76
Cc1cc(C)c(-c2cc(NC(=O)CSc3nncn3C)n(-c3ccccc3)n2)cc1C | -2.25
CCCN(Cc1nnc(-c2ccccc2Cl)o1)C(=O)c1ccc(C)c(S(=O)(=O)N2CCOCC2)c1 | -21.9
CCC1=Nc2cc(C(=O)NCCN3CCOCC3)ccc2Sc2ccccc21 | 5.95
CCOC(=O)N1CCN(Cc2ccc3c(c2)OCO3)CC1 | 12.9
COc1ccc(S(=O)(=O)N(C)CC(=O)N2CCCCCC2)cc1OC | 9.68
CCC(Sc1nc(C)cc(=O)[nH]1)C(=O)Nc1sc2c(c1C#N)CCCC2 (stereo not drawn) | -0.53
O=C(COC(=O)Cc1ccsc1)Nc1ccc(Br)cc1F | 15.9
COc1ccc(C2OC(=O)c3ccccc3S2)cc1 (stereo not drawn) | 12.7
